From the supplement of paper PMC3334620
Whole data set: some 33,000 sequences, median “E-score (-0.5 to 0.5)” near -0.021, cut for the highest 2% near 0.32. This is one part of the list.

Target: T1, Zap1 (UniProt P47043)
T1 sequence: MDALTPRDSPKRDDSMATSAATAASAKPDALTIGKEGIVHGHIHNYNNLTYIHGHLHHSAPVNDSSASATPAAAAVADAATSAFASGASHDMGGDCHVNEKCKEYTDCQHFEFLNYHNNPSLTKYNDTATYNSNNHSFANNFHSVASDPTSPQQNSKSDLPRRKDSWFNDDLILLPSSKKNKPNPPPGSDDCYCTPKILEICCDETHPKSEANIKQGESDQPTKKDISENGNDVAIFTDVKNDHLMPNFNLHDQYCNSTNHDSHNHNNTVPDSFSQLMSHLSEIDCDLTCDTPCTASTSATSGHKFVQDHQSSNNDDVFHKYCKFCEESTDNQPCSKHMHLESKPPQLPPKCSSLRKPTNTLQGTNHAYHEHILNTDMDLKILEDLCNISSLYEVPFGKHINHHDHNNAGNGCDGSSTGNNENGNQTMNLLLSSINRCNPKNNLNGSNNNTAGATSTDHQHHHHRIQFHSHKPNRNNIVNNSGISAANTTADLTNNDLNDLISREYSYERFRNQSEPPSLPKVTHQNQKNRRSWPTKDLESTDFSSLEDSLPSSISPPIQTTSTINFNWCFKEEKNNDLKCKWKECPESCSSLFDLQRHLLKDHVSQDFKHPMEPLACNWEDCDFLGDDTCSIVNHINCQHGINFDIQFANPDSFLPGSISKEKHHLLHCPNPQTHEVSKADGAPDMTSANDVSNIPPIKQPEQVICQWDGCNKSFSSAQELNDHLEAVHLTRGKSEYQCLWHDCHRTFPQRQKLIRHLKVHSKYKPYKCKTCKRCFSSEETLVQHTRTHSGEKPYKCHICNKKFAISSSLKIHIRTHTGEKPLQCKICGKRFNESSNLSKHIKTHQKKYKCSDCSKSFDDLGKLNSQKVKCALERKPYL
Test: PBM E-score (8-mer binding enrichment) (E-score (-0.5 to 0.5)); higher = stronger / more preferred TF binding; most listed sequences are background and not binding sites
Settings: protein concentration: 200 nM; construct: GST-full length
Procedure, shortened: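 GST-tagged yeast TFs (full-length or DNA-binding domain) were made by PURExpress in vitro transcription/translation and applied at about 100-200 nM to universal all-10-mer Agilent arrays. The arrays were made double-stranded by primer extension, on fresh or once-stripped slides. Bound protein was detected with fluorescent anti-GST, and scans were normalised with masliner. Each ungapped eight-base word, pooled with its reverse complement, received an E-score (modified Wilcoxon-Mann-Whitney statistic) from the Universal PBM Analysis Suite.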

Row | Sequence | PBM E-score
1 | CGCTTTTC | -0.082
2 | TCCAAACA | -0.00427
3 | CGAAGACG | -0.253
4 | AACGTTGT | -0.0704
5 | CTTTTACC | 0.0877
6 | CTCTGGCA | -0.0979
7 | AATCAGCC | -0.25
8 | TTCTTCAA | 0.0925
9 | CTGTTGTC | -0.166
10 | TAAGATAA | 0.189
11 | ATCTTGAA | 0.191
12 | ACAGGGTC | 0.315
13 | AGGGTACA | 0.337
14 | CGTCTTAA | 0.05
15 | GTTTATGA | 0.0316
16 | ATGAACCA | 0.202
17 | ATCAGCAT | -0.07
18 | AAGTGGGC | -0.0497
19 | ACGAGGAG | -0.129
20 | AAAAGTTT | 0.183
21 | CCCTACGA | 0.0771
22 | CGACCTCA | 0.081

Row | Sequence | PBM E-score
23 | CATGTGTC | -0.0208
24 | CCCAGAGA | -0.177
25 | ACCATACC | 0.0927
26 | AATATACC | 0.217
27 | ACTCCTAC | -0.0776
28 | AGACTCGG | -0.391
29 | CTGCCCAC | -0.244
30 | GCATAAGC | -0.0977
31 | CAACATTA | 0.108
32 | ACGTCGAC | -0.0234
33 | ACCACTCT | 0.0546
34 | ATACCAAG | 0.072
35 | CCTACTAA | 0.0268
36 | TGCGAGAA | -0.159
37 | CCGGTTCC | 0.0447
38 | ACTTATCG | -0.125
39 | CGAGCCCG | -0.209
40 | CCTGGCAG | -0.0306
41 | CCGTGGAA | -0.0179
42 | TATGCTGA | 0.0979
43 | ACTGCAAA | 0.0747
44 | CCCTAACC | 0.33

Row | Sequence | PBM E-score
45 | CACTTGTA | 0.0154
46 | TAACTGAA | 0.0492
47 | CTGAGCTA | -0.214
48 | ACTTTTCG | 0.0623
49 | TTAGAAAA | 0.119
50 | ACCACGGA | -0.12
51 | GCAGTGCA | -0.227
52 | AGAGGCAC | -0.0444
53 | CAGTTCAC | 0.0243
54 | GTGCGCGA | -0.0723
55 | CACACAAA | 0.124
56 | ATATTGTG | 0.101
57 | ATTAACAG | -0.102
58 | GTATGGCA | -0.168
59 | GTCAGCTA | -0.0748
60 | ATGCCACG | -0.317
61 | CAGTATCA | -0.0565
62 | ACGACAAG | -0.0767
63 | GACAGTCC | -0.0847
64 | GTCAAAAA | 0.0924
65 | CTTCGAGA | 0.0122
66 | CCTAGTCA | -0.254

Row | Sequence | PBM E-score
67 | AAAGTGAC | 0.0397
68 | ACTGGCCT | -0.083
69 | TAAATATA | 0.231
70 | GCTTGGCA | -0.0928
71 | CGCTGATA | -0.172
72 | ACGGCTGG | -0.0605
73 | ACAGGCGG | -0.272
74 | AGGTACGG | -0.139
75 | ATGACATG | -0.142
76 | CAGAGTAG | 0.0171
77 | ATAACTTA | 0.231
78 | CCCCGCCG | -0.00305
79 | GAGTTGTA | 0.0387
80 | CATTAACA | 0.0919
81 | AGTGGAAT | 0.0649
82 | CGACTGAG | -0.072
83 | CATCAGTA | 0.058
84 | AGCTGAAT | -0.0562
85 | CCTAACGC | 0.0627
86 | AACCGAGG | -0.0131
